Data: US20250243245A1 (priority 2022, published 2025)
Where a SMILES comes first, the peptide text is derived from it. Bridges are numbered along the chain shown (N, C = ends).

Legend:
E. coli BL21 = conditions: Table V
Excerpt: . The bioluminescence assay (22) measures the number of viable microbial cells in culture based on quantitation of the ATP present. Note that ATP is present in live (metabolically active) cells but not in dead cells. […] Note that chimeras AC and CA were identified as the most promising antibacterial agents. Also, note the synergistic effect of the units A and C in chimeras as evidenced by the much lower MIC of the chimera than that of the equimolar mixtures of units A and C.
(§1) Bioluminescence assay: The bioluminescence assay was conducted using the BacTiter-Glo Microbial Cell Viability Assay kit (Promega G8231). Bioluminescence was measured using plate reader. To determine exact CFU values, a standard curve was used to correlate the CFU to bioluminescence. […] To determine IC50% and IC99% values dose-response curves were fitted to Hill equation.

ATCC25922 = conditions: Table V; ATCC
Experimental: These parameters in the energy minimized structures of the chimeras also allowed empirical ranking of the chimeras in terms of antibacterial activity. […] . The MIC assay was performed on a 96-well plate by serial dilution of the peptide in the concentration range 20-0.02 mM and monitoring the growth of the E. coli strain BL21 and (in some cases ATCC25922) by measuring optical density (OD)/cfu. This produced the range of MIC above which no bacterial growth was observed. […] . Tables sIa and sIb show various fragments of the citrus and apple proteins that are homologous to various chimeras shown in Table I, which include: single units on the N/C-terminal of the chimeras, linkers joining them, and the chimera fragments containing the N-terminal, the linker, and the C-terminal as well.
as §1

CC[C@H](C)[C@H](NC(=O)[C@H](CCCCN)NC(=O)[C@H](CC(C)C)NC(=O)[C@@H](NC(=O)[C@H](CCCCN)NC(=O)[C@H](CCC(=O)O)NC(=O)[C@@H]1CCCN1C(=O)[C@H](CCC(N)=O)NC(=O)[C@H](CCCNC(=N)N)NC(=O)CNC(=O)[C@H](CCCNC(=N)N)NC(=O)[C@@H]1CSSC[C@H](NC(=O)[C@@H](N)CCCCN)C(=O)N[C@@H](CCCNC(=N)N)C(=O)N[C@@H](CCCNC(=N)N)C(=O)N[C@@H](CC(C)C)C(=O)N[C@H]2CSSC[C@H](NC(=O)[C@H](CCCNC(=N)N)NC(=O)[C@H](CCC(N)=O)NC(=O)[C@H](CCCCN)NC(=O)[C@H](Cc3ccc(O)cc3)NC2=O)C(=O)N[C@@H](C(C)C)C(=O)N[C@@H]([C@@H](C)O)C(=O)N[C@@H](Cc2ccc(O)cc2)C(=O)N1)[C@@H](C)CC)C(=O)N[C@@H](CC(C)C)C(=O)N[C@@H](CCC(=O)O)C(=O)N[C@@H](CO)C(=O)N[C@@H](CC(C)C)C(=O)N[C@@H](CCCCN)C(=O)O [α/βP-3, KCRRLCYKQRCVTYCRGROPEKILKILESLK] (H-KCRRLCYKQRCVTYCRGRQPEKILKILESLK-OH; disulfide 2-15, 6-11 (inferred); N-terminus and C-terminus assumed)
IC99% (E. coli BL21): 2.6 ± 1.0 µM | IC99% (ATCC25922): 1.0 ± 0.2 µM

CC(C)C[C@@H]1NC(=O)[C@H](CCCNC(=N)N)NC(=O)[C@H](CCCNC(=N)N)NC(=O)[C@@H](NC(=O)[C@@H](N)CCCCN)CSSC[C@@H](C(=O)N[C@@H](CCCNC(=N)N)C(=O)NCC(=O)N[C@@H](CCCNC(=N)N)C(=O)N[C@@H](CCC(N)=O)C(=O)O)NC(=O)[C@H](Cc2ccc(O)cc2)NC(=O)[C@H]([C@@H](C)O)NC(=O)[C@H](C(C)C)NC(=O)[C@@H]2CSSC[C@H](NC1=O)C(=O)N[C@@H](Cc1ccc(O)cc1)C(=O)N[C@@H](CCCCN)C(=O)N[C@@H](CCC(N)=O)C(=O)N[C@@H](CCCNC(=N)N)C(=O)N2 [Peptide L19GA, KC2RRLC6YKQRC11VTYC15RGRQ]
IC50 (E. coli BL21): 1000 ± 300 nM | IC99% (E. coli BL21): 1.6 ± 0.3 µM | IC50 (ATCC25922): 1200 ± 300 nM | IC99% (ATCC25922): 1.3 ± 0.3 µM
